Laboratory results as given in patent US20110212853A1, “NOVEL DIAGNOSTIC METHOD” (PROBIODRUG AG, priority 2010, published 2011).

Experiments:
hMCP-1(1-38) = hMCP-1(1-38) (Homo sapiens, UniProt P13500); assay: Isothermal titration calorimetry of anti-MCP-1 N1pE antibodies; assay type: binding; details: ITC, 20° C., pH 7.4
Procedure: The binding affinities of anti-MCP-1 N1pE antibodies (MCP-1 N1pE antibody 2C9 and biotinylated MCP-1 N1pE antibody 348/2C9) to the antigen hMCP-1(1-38) were determined usingVP-ITC microcalorimeter (MicroCal). Both antibody clones and the MCP-1 (1-38) peptide were dialyzed against 2 liter 150 mM NaCl, 25 mM Na2HPO4, 25 mM KH2PO4, 2 mM EDTA pH 7.4 overnight at 4° C. to ensure the same buffer conditions and avoid background heat by protonation events. Afterwards, the concentrations of the antibodies and the peptide and the respective extinction coefficient were calculated from absorbance at 280 nm. For the titration experiments, MCP-1 N1pE antibody 2C9 and MCP-1(1-38) were used at concentrations of 1.87 μM and 29.19 μM, respectively. The binding heat was recorded at 20° C. by titration of 29 injections of 10 μl of MCP-1(1-38) into the anti-MCP-1 N1pE antibody solution. The heat development of the dilution of the MCP-1(1-38) peptide was determined by titration into the dialysis buffer using the conditions and instrument setup. Afterwards, the data were analyzed by means of the MicroCal ORIGIN software. The calculated binding heat was corrected by the heat of the peptide dilution. The resulting curve was fitted by the “One Set of Sites” binding model and the stoichiometry, dissociation constant, reaction enthalpy, reaction entropy, were calculated.

mouse MCP-1 N1pE = target: T1, mouse MCP-1 N1pE (Mus musculus, UniProt P10148); assay: Indirect Sandwich ELISA for detection of mMCP-1 N1pE; assay type: binding
T1 construct: host or cells: E. coli
Text: Examples 5-10 describe the quantitative detection of recombinant and native human MCP-1/MCP-1 N1pE. In order to analyse mMCP-1 and mMCP-1 N1pE level in mouse samples, assays needed to developed for the quantification of mouse MCP-1/MCP-1 N1pE. Since the MCP-1 N1pE antibody clone 348-2C9 cross reacts with mouse MCP-1 N1pE, this antibody was used for the establishment of an indirect Sandwich ELISA for the detection of mMCP1 N1pE.
To capture mouse MCP-1, commercially available polyclonal antiserum rabbit anti mJE (Peprotech, Hamburg, Germany) as capture antibody which specifically binds mouse MCP-1 was diluted in PBS to 500 ng/ml and immobilized in polystyrene 96-well microtitre plates over 4-7 nights at 4° C. Thereafter, blocking occurred for 2 hours at room temperature with ELISA Blocker (Thermo Fisher Scientific, Waltham, USA). For preparation of the standard curve recombinant mMCP-1 was incubated with mouse Glutaminyl Cyclase (QC) in order to obtain mMCP-1 N1pE. The recombinant mMCP-1 N1pE standard peptide was serially diluted with ELISA Blocker from 1950 pg/ml down to 19.5 pg/ml and added to the wells in duplicate. Two wells filled with ELISA Blocker represent the standard curve value 0 pg/ml. […] Absorption at 450/540 nm was determined by a Tecan Sunrise plate reader.

hMCP-1(1-38), sequence (P13500 24-61 limits assumed): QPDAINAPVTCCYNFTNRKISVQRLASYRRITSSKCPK
T1 sequence (P10148 24-148): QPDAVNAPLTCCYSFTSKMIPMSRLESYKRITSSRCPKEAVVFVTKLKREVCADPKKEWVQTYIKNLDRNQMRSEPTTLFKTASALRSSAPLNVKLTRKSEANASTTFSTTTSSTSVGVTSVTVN

B1: MCP-1 N1pE antibody 348/2C9: monoclonal antibody specific for N-terminal pyroglutamate modified MCP-1, hybridoma 348/2C9 (Deposit No. DSM ACC 2906) (antibody, V domains shown)
VH: EVQLQQSGPELVKPGASVKMSCKASGYTFTDYYMDWVKQSHGESFECIGRVNPYNGGTSYNQKFKGKATLTVDKSSSTAYMELNSLTSEDSAVYYCARLGSSYRWGQGTTLTVSSAKTTPPSVYPL
VL: DVVMTQTPLSLSVTIGQPASISCKSSQSLLDSAGKTYLSWLLQRPGQSPKRLIYLVSKLDSGVPDRFTGSGSGTDFTLKISRVEAEDLGVYYCWQGTHFPWTFGGGTKLEIKRADAAPTVSIFPPSS
hMCP-1(1-38)
  Reaction enthalpy: -7.679 kcal/mol
  Reaction entropy: 5.01 cal/mol·K
  Stoichiometry: 1.83
hMCP-1(1-38); read-out: Dissociation constant
  Kd: 151 nM
Mouse MCP-1 N1pE
  cross reaction with mouse MCP-1 N1pE: cross reacts
